Test results published in the supplement of paper PMC12217912.
This is one part of the list. Sequences were assembled here from the parent chain. Inactive controls read about 0.05.

B1: TEV protease; numbered along this chain (parent)
chain: MGESLFKGPRDYNPISSSICHLTNESDGHTTSLYGIGFGPFIITNKHLFRRNNGTLVVQSLHGVFKVKDTTTLQQHLVDGRDMIIIRMPKDFPPFPQKLKFREPQREERICLVTTNFQTKSMSSMVSDTSCTFPSGDGIFWKHWIQTKDGQCGSPLVSTRDGFIVGIHSASNFTNTNNYFTSVPKNFMELLTNQEAQQWVSGWRLNADSVLWGGHKVFMVKPEEPFQPVKEATQL

Variants of: B1
Experiment: raw area under fraction-flipped curve 0-4 h after induction (AUC4h, not background-subtracted), DNA-recorder readout of cleavage of the substrate (dimensionless); higher = more cleavage of the substrate by the protease variant
Conditions: temperature: 34 °C; time window: 0-4 h after rhamnose induction
Experimental: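 In vivo DNA recorder in E. coli TOP10(DE3) ΔrhaA at 34 °C. Each TEVp single-site mutant (parent TEVp 0) is paired with a single-site variant of the 7-mer TEVs (canonical ENLYFQ|S). The substrate sits between flexible linkers in a Bxb1-sfGFP-TEVs-SsrA fusion, so cleavage stabilises Bxb1 and speeds flipping of a recombination array, read by NGS. The value is the raw area under the fraction-flipped curve over 0-4 h after rhamnose induction (AUC4h), with ≥20 reads per time point. It is not background-subtracted; inactive controls average about 0.047.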
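Further: Bxb1 expression induced with 0.2% (w/v) L-rhamnose at OD600 near 0.5, cultures sampled hourly, flipped fraction per protease–substrate barcode pair counted by paired-end Illumina sequencing.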

Variant	area with substrate ENLYCQS	area with substrate ENLYEQS	area with substrate ENLYKQS	area with substrate ENLYNQS	area with substrate ENLYPQS	area with substrate ENLYSQS	area with substrate ENLYVQS	area with substrate ENLYWQS	area with substrate ENLYGQS	area with substrate ENLYHQS	area with substrate ENLYLQS	area with substrate ENLYMQS	area with substrate ENLYQQS	area with substrate ENLYRQS	area with substrate ENLYDQS	area with substrate ENLYIQS	area with substrate ENLYTQS	area with substrate ENLYYQS
MGESLFKGPRDYNPISSSICHLTNESDGHTTSLYGIGFGPFIITNKHLFRRNNGTLVVQSLHGVFKVKDTTTLQQHLVDGRDMIIIRMPKDFPPFPQKLKFREPQREERICLVTTNFVTKSMSSMVSDTSCTFPSGDGIFWKHWIQTKDGQCGSPLVSTRDGFIVGIHSASNFTNTNNYFTSVPKNFMELLTNQEAQQWVSGWRLNADSVLWGGHKVFMVKPEEPFQPVKEATQL [Q118V]	0.0721	0.0664	0.0079	0.0609	0.06	0.0722	0.107	0.0859										
MGESLFKGPRDYNPISSSICHLTNESDGHTTSLYGIGFGPFIITNKHLFRRNNGTLVVQSLHGVFKVKDTTTLQQHLVDGRDMIIIRMPKDFPPFPQKLKFREPQREERICLVTTNFQTKSMSSMESDTSCTFPSGDGIFWKHWIQTKDGQCGSPLVSTRDGFIVGIHSASNFTNTNNYFTSVPKNFMELLTNQEAQQWVSGWRLNADSVLWGGHKVFMVKPEEPFQPVKEATQL [V126E]	0.0785	0.123	0.034	0.0692	0.0833			0.0617	0.0427	0.0711	0.0973	0.0775	0.0563	0.0677				
MGESLFKGPRDYNPISSSICHLVNESDGHTTSLYGIGFGPFIITNKHLFRRNNGTLVVQSLHGVFKVKDTTTLQQHLVDGRDMIIIRMPKDFPPFPQKLKFREPQREERICLVTTNFQTKSMSSMVSDTSCTFPSGDGIFWKHWIQTKDGQCGSPLVSTRDGFIVGIHSASNFTNTNNYFTSVPKNFMELLTNQEAQQWVSGWRLNADSVLWGGHKVFMVKPEEPFQPVKEATQL [T23V]	0.0681	0.0561	0.0693	0.0793	0.0657	0.0698	0.14	0.082	0.0571	0.0799		0.0983			0.0648	0.144	0.108	0.068
MGESLFKGPRDYNPISSSICHLTNESDGHTTSLYGIGFGPFIITNKHLFRRNNGTLVVQSLHGVFKVKDTTTLQQHLVDGRDMIIIRMPKDFPPFPQKLKFREPQREERICEVTTNFQTKSMSSMVSDTSCTFPSGDGIFWKHWIQTKDGQCGSPLVSTRDGFIVGIHSASNFTNTNNYFTSVPKNFMELLTNQEAQQWVSGWRLNADSVLWGGHKVFMVKPEEPFQPVKEATQL [L112E]	0.0617	0.0537		0.059	0.0653	0.0566	0.0931	0.082	0.0571	0.0613	0.0673	0.0406	0.0423	0.0646	0.0553			0.0649
MGESLFKGPRDYNPISSSICHLTNESDGHTTSLYGIGFGPFIITNKHLFRRNNGTLVVQSLHGVFKVKDTTTLQQHLVDGRDMIIIRMHKDFPPFPQKLKFREPQREERICLVTTNFQTKSMSSMVSDTSCTFPSGDGIFWKHWIQTKDGQCGSPLVSTRDGFIVGIHSASNFTNTNNYFTSVPKNFMELLTNQEAQQWVSGWRLNADSVLWGGHKVFMVKPEEPFQPVKEATQL [P89H]	0.0669	0.0575			0.0663	0.0232				0.0651		0.0803	0.0711		0.0521	0.0865		
MGESLFKGPRDYNPISSSICHLTNESDGHTTSLYGIGFGPFIITNKHLFRRNNGTLVVQSLHGVFKVKDTTTLQQHLVDGRDMIIIRMPKDFPPFPQKLKFREPQREERICLVTTNFQTKSMSSMVSDTSCTFPSGDGIFWKHWIQTKDGQCGSPLVSTRDGFIVGIHSASNFTNTNNYFTSVPKNFMELLTNQEAQQWVSGWRLNNDSVLWGGHKVFMVKPEEPFQPVKEATQL [A207N]	0.0867	0.0533	0.0609	0.0579	0.0732	0.0697	0.114	0.0692	0.065	0.0671		0.103	0.0657	0.0597	0.0624		0.118	
MGESLFKGPRDYNPISSSICHLTNESDGHTTSLYGIGFGPFIITNKHLFRRNNGTLVVQSLHGVFKVKDTTTLQQHLVDGRDMIIIRMPKDFPPFPQKLKFREPQREERICLVTTNFQTKSMSSMVSDTDCTFPSGDGIFWKHWIQTKDGQCGSPLVSTRDGFIVGIHSASNFTNTNNYFTSVPKNFMELLTNQEAQQWVSGWRLNADSVLWGGHKVFMVKPEEPFQPVKEATQL [S130D]	0.0809	0.0607	0.0576	0.0712	0.0741		0.0747		0.067	0.0724		0.11	0.051	0.0618				0.0643
MGESLFKGPRDYNPISSSICHLTNESDGHTTSLYGIGFGPFIITNKHLFRRNNGTEVVQSLHGVFKVKDTTTLQQHLVDGRDMIIIRMPKDFPPFPQKLKFREPQREERICLVTTNFQTKSMSSMVSDTSCTFPSGDGIFWKHWIQTKDGQCGSPLVSTRDGFIVGIHSASNFTNTNNYFTSVPKNFMELLTNQEAQQWVSGWRLNADSVLWGGHKVFMVKPEEPFQPVKEATQL [L56E]	0.0555	0.0456	0.0484	0.0504	0.0455				0.0482			0.0519					0.0434	0.056
MGESLFKGPRDYNPISSSICHLTNESDGHTTSLYGIGFGPFIITNKHLFRRNNGTLVVQSLHGVFKVKDTTTLQQHLVDGRDMIIIRMPKDFPPFPQKLKFREPQREERICLVTTNFQTKSMSSMVSDTSCTFPSGDGIFWKHWIQTKDGQCGSPLVSTRDSFIVGIHSASNFTNTNNYFTSVPKNFMELLTNQEAQQWVSGWRLNADSVLWGGHKVFMVKPEEPFQPVKEATQL [G162S]	0.107	0.0542	0.0619	0.0616	0.0712	0.0696	0.104	0.0761	0.0595	0.072				0.0522	0.0652			
